Results taken from PubChem BioAssay AID686978 (National Center for Advancing Translational Sciences (NCATS), 2013).
About 64,000 (15%) of roughly 420,000 compounds were called active. This list was built around the results that the source calls inconclusive (neither active nor inactive); the mix of calls is not that of the screen. Calls follow the shape of the dose curve; as a rule, active = well fitted inhibition curve with a large enough effect; inconclusive = small, poorly fitted or top-dose-only effect; inactive = flat fitted curve, though single readings scatter. No potency is given beside an inconclusive call; the fits are too rough.

Assay: qHTS for Inhibitors of human tyrosyl-DNA phosphodiesterase 1 (TDP1): qHTS in cells in absence of CPT; also: nearly all actives have a fitted effect of over 55% in size
Details: DT40 Tdp1-/- hTDP1 cells, no CPT, ATP luminescence, 48 h; activity change, negative = growth inhibition: at 46.2 µM (top of the series)
Procedure, shortened: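 Chicken DT40 Tdp1-/- cells stably complemented with human TDP1 were seeded at 400 cells/well with DMSO in place of 20 nM camptothecin. After compound pinning, cells grew at least 48 hr at 37 °C; viability read by CellTiter-Glo luminescence.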
% is scaled to controls: 0 for no effect and ±100 for the full control effect; potency is read from the fitted curve at half-maximal effect; tags tell the direction and shape of the fitted curve.

| SMILES | Potency | activity change, negative = growth inhibition |
| --- | --- | --- |
| COc1cccc(N2CCN(C(=O)CCNS(=O)(=O)c3ccc(F)c(F)c3)CC2)c1 | inconclusive [inhibitor, single point] | – |
| CCOc1ccc(CCNC(=O)c2ccc(CNS(=O)(=O)c3ccccc3)cc2)cc1OCC | inconclusive [inhibitor, single point] | – |
| CCCCN1C(=O)NC(c2cccc([N+](=O)[O-])c2)C(C(=O)OCC)=C1C (stereo unspecified) | inconclusive [inhibitor, partial curve, poor fit] | – |
| O=C(O[C@@H]1OC2COC(=O)c3cc(O)c(O)c(O)c3-c3c(cc(O)c(O)c3O)C(=O)O[C@@H]([C@H]1O)[C@@H]2O)c1cc(O)c(O)c(O)c1 | inconclusive [inhibitor, single point] | – |
| CC1CN(C(=O)c2ccccc2Oc2ccccc2)CC(C)O1 (stereo unspecified) | inconclusive [inhibitor, single point] | – |
| CCOC(=O)c1ccc(S(=O)(=O)NCCNCc2ccccc2)cc1 | inconclusive [inhibitor, partial curve] | – |
| Cc1cccc(CNC(=O)c2ccc3c(c2)c(C)c(C)n3Cc2ccccc2)c1 | inconclusive [inhibitor, single point] | – |
| COc1ccccc1C1C=C(c2ccc(C(C)C)cc2)Nc2nnnn21 (stereo unspecified) | inconclusive [inhibitor, single point] | – |
| CSc1ncc(Cl)c(C(=O)N(Cc2ccc(C)cc2)C2CCS(=O)(=O)C2)n1 (stereo unspecified) | inconclusive [inhibitor, partial curve] | – |
| Fc1ccc(-n2ncc3c(Nc4cccc(Cl)c4)ncnc32)cc1 | inconclusive [inhibitor, partial curve] | – |
| COc1ccc(NC(=O)Nc2ccc3c(c2)CCC3)cc1OC | – | inactive: -0.32% |
| Cc1ccc(Cn2c(Sc3nccc(C)n3)nc3c2c(=O)[nH]c(=O)n3C)cc1 | inconclusive [inhibitor, single point] | – |
| COc1cc(C2(c3ccc(O)c(OC)c3)C(=O)Nc3c(Br)cc(Br)cc32)ccc1O | inconclusive [inhibitor, single point] | – |
| COc1ccc(C(=O)COC(=O)CN2CC(=O)Oc3ccccc32)cc1Br | inconclusive [inhibitor, single point] | – |
| CN(C(=S)NC(=O)Cc1ccccc1)c1ccccc1 | inconclusive [inhibitor, single point] | – |
| COc1ccc2c(c1)Sc1ccccc1N2 | active: 16.4 µM | – |
| CC1(C(=O)NS(=O)(=O)c2cccc(F)c2)CCN1C(=O)Cc1ccc(-c2ccccc2)cc1 (stereo unspecified) | – | inactive: 14.4% |
| CCOC(=O)c1ccc(NC(=O)NC2CC3CCC(C2)N3Cc2nnnn2Cc2ccco2)cc1 (stereo unspecified) | inconclusive [inhibitor, single point] | – |
| CC1=CCC(Cc2nc3ccccc3o2)C1(C)C (stereo unspecified) | inconclusive [inhibitor, single point] | – |
| CCN(CC)S(=O)(=O)c1ccc(C(=O)Nc2nc3ccc(Cl)cc3s2)cc1 | inconclusive [inhibitor, partial curve, poor fit] | – |
| O=S(=O)(c1ccccc1)c1nc(-c2ccc(F)cc2)oc1NCC1CCCO1 (stereo unspecified) | inconclusive [inhibitor, single point] | – |

| SMILES | Potency | activity change, negative = growth inhibition |
| --- | --- | --- |
| C=CCN(C)CCCCCCOc1ccc(C(=O)c2ccc(Br)cc2)c(F)c1 | active: 5.01 µM | – |
| NS(=O)(=O)c1ccc(CCNC(=O)c2cc(-c3cc(Cl)ccc3O)n[nH]2)cc1 | inconclusive [inhibitor, single point] | – |
| CC(C)(C)C(=O)NCCc1nc2ccccc2n1CC(=O)c1ccccc1 | inconclusive [inhibitor, single point] | – |
| COc1cc(C(=O)N2CCN(c3ncnc4sc(C)c(C)c34)CC2)cc(OC)c1OC | inconclusive [inhibitor, partial curve, poor fit] | – |
| CCOc1ccccc1CNC(=O)c1ccccc1NC(=O)C1=CSCCO1 | active: 25.9 µM | – |
| C#CCNC(=O)C1=C[C@@H](C(C)(C)C)C[C@@H](OCc2ccc(CO)cc2)O1 | inconclusive [inhibitor, partial curve, poor fit] | – |
| CC1CCN(S(=O)(=O)c2ccc3c(c2)oc(=O)n3CC(=O)N2c3ccccc3CC2C)CC1 (stereo unspecified) | – | inactive: -23.7% |
| Cn1ccnc1SCC(=O)Nc1nc2c(F)c(F)c(F)cc2s1 | inconclusive [inhibitor, full curve] | – |
| COc1cccc(NC(=O)Cn2cc(S(=O)(=O)Cc3ccccc3F)c3ccccc32)c1 | active: 18.4 µM | – |
| COc1ccccc1CCC(=O)NNC(=O)c1ccc(Br)cc1 | – | inactive: -7.29% |
| CCn1c2ccccc2c2cc(N=C3SC(CC(=O)Nc4ccccc4)C(=O)N3C)ccc21 (stereo unspecified) | inconclusive [inhibitor, partial curve, poor fit] | – |
| CC1(Cc2ccc(Cl)cc2)C(=O)Nc2ccc(-c3cccnc3)cc21 (stereo unspecified) | active: 11.6 µM | – |
| COc1ccccc1-c1csc(C(O)(c2ccccc2)C(F)(F)F)n1 (stereo unspecified) | active: 18.4 µM | – |
| Cc1ccc2nc(N(CCN3CCOCC3)C(=O)CCS(=O)(=O)c3ccccc3)sc2c1 | active: 11.6 µM | – |
| CCCCN(CCCC)c1nc2ccccc2nc1C(C#N)C(=O)NCCCOC (stereo unspecified) | inconclusive [inhibitor, single point] | – |
| c1cncc(-c2nc(-c3ccco3)cs2)c1 | inconclusive [inhibitor, single point] | – |
| CN(C)CCNc1nc2sc3c(c2c(=O)n1-c1ccc(F)cc1)CCCCC3 | inconclusive [inhibitor, single point] | – |
| Cn1cc(-c2nnnn2-c2ccc(Cl)cc2)c(C(F)(F)F)n1 | inconclusive [inhibitor, single point] | – |
| CC(=O)N1CCOc2ccc(S(=O)(=O)N3CCN(c4cccc(C(F)(F)F)c4)CC3)cc21 | inconclusive [inhibitor, partial curve] | – |
| N#CC(Cc1ccccc1)(Cc1ccccc1)C(=O)NN | – | inactive: -3.71% |
